# Test results: the supplement of paper PMC8728848
# The other results are listed elsewhere or left out.
# What was measured:
# Assay in all cases: glycan array binding signal (z-score within array); higher = stronger binding
# Settings in all cases: glycan notation: IUPAC condensed, linker removed
# [1] = target: GlcNAc(b1-3)Gal(b1-3)GalNAc
# Outline: (§1)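 Negative Z-scores can be read as non-binding. The Z-score is calculated within each array and then averaged across arrays of one protein sequence at different concentrations or buffers and across linkers. Arrays, 3228 in all, were curated from the Consortium for Functional Glycomics database and kept only where the protein sequence was available.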
# GlcNAc(b1-3)Gal(b1-4)Glc = target: GlcNAc(b1-3)Gal(b1-4)Glc
# Outline: as §1
# [2] = target: GlcNAc(b1-3)Gal(b1-4)GlcNAc
# Outline: as §1
# [3] = target: GlcNAc(b1-3)Gal(b1-4)GlcNAc(b1-2)Man(a1-3)[GlcNAc(b1-3)Gal(b1-4)GlcNAc(b1-2)Man(a1-6)]Man(b1-4)GlcNAc(b1-4)GlcNAc
# Outline: as §1
# [4] = target: GlcNAc(b1-3)Gal(b1-4)GlcNAc(b1-2)Man(a1-3)[GlcNAc(b1-3)Gal(b1-4)GlcNAc(b1-2)Man(a1-6)]Man(b1-4)GlcNAc(b1-4)[Fuc(a1-6)]GlcNAc
# Outline: as §1
# [5] = target: GlcNAc(b1-3)Gal(b1-4)GlcNAc(b1-2)[GlcNAc(b1-3)Gal(b1-4)GlcNAc(b1-6)]Man(a1-6)[GlcNAc(b1-3)Gal(b1-4)GlcNAc(b1-2)Man(a1-3)]Man(b1-4)GlcNAc(b1-4)GlcNAc
# Outline: as §1
# [6] = target: GlcNAc(b1-3)Gal(b1-4)GlcNAc(b1-3)Gal(b1-4)GlcNAc
# Outline: as §1
# [7] = target: GlcNAc(b1-3)Gal(b1-4)GlcNAc(b1-3)Gal(b1-4)GlcNAc(b1-2)Man(a1-3)[GlcNAc(b1-3)Gal(b1-4)GlcNAc(b1-3)Gal(b1-4)GlcNAc(b1-2)Man(a1-6)]Man(b1-4)GlcNAc(b1-4)GlcNAc
# Outline: as §1
# [8] = target: GlcNAc(b1-3)Gal(b1-4)GlcNAc(b1-3)Gal(b1-4)GlcNAc(b1-2)Man(a1-3)[GlcNAc(b1-3)Gal(b1-4)GlcNAc(b1-3)Gal(b1-4)GlcNAc(b1-2)Man(a1-6)]Man(b1-4)GlcNAc(b1-4)[Fuc(a1-6)]GlcNAc
# Outline: as §1
# [9] = target: GlcNAc(b1-3)Gal(b1-4)GlcNAc(b1-3)Gal(b1-4)GlcNAc(b1-2)[GlcNAc(b1-3)Gal(b1-4)GlcNAc(b1-3)Gal(b1-4)GlcNAc(b1-6)]Man(a1-6)[GlcNAc(b1-3)Gal(b1-4)GlcNAc(b1-3)Gal(b1-4)GlcNAc(b1-2)Man(a1-3)]Man(b1-4)GlcNAc(b1-4)[Fuc(a1-6)]GlcNAc
# Outline: as §1
# [10] = target: GlcNAc(b1-3)Gal(b1-4)GlcNAc(b1-3)Gal(b1-4)GlcNAc(b1-3)Gal(b1-4)GlcNAc(b1-2)Man(a1-3)[GlcNAc(b1-3)Gal(b1-4)GlcNAc(b1-3)Gal(b1-4)GlcNAc(b1-3)Gal(b1-4)GlcNAc(b1-2)Man(a1-6)]Man(b1-4)GlcNAc(b1-4)GlcNAc
# Outline: as §1
# [11] = target: GlcNAc(b1-3)Gal(b1-4)GlcNAc(b1-3)Gal(b1-4)GlcNAc(b1-3)Gal(b1-4)GlcNAc(b1-2)Man(a1-3)[GlcNAc(b1-3)Gal(b1-4)GlcNAc(b1-3)Gal(b1-4)GlcNAc(b1-3)Gal(b1-4)GlcNAc(b1-2)Man(a1-6)]Man(b1-4)GlcNAc(b1-4)[Fuc(a1-6)]GlcNAc
# Outline: as §1
# [12] = target: GlcNAc(b1-3)Gal(b1-4)GlcNAc(b1-3)Gal(b1-4)GlcNAc(b1-3)Gal(b1-4)GlcNAc(b1-2)[GlcNAc(b1-3)Gal(b1-4)GlcNAc(b1-3)Gal(b1-4)GlcNAc(b1-3)Gal(b1-4)GlcNAc(b1-6)]Man(a1-6)[GlcNAc(b1-3)Gal(b1-4)GlcNAc(b1-3)Gal(b1-4)GlcNAc(b1-3)Gal(b1-4)GlcNAc(b1-2)Man(a1-3)]Man(b1-4)GlcNAc(b1-4)[Fuc(a1-6)]GlcNAc
# Outline: as §1
# [13] = target: GlcNAc(b1-3)Gal(b1-4)GlcNAc(b1-3)Gal(b1-4)GlcNAc(b1-3)Gal(b1-4)GlcNAc(b1-3)Gal(b1-4)GlcNAc(b1-2)Man(a1-3)[GlcNAc(b1-3)Gal(b1-4)GlcNAc(b1-3)Gal(b1-4)GlcNAc(b1-3)Gal(b1-4)GlcNAc(b1-3)Gal(b1-4)GlcNAc(b1-2)Man(a1-6)]Man(b1-4)GlcNAc(b1-4)GlcNAc
# Outline: as §1
# [14] = target: GlcNAc(b1-3)Gal(b1-4)GlcNAc(b1-3)Gal(b1-4)GlcNAc(b1-3)Gal(b1-4)GlcNAc(b1-3)Gal(b1-4)GlcNAc(b1-2)Man(a1-3)[GlcNAc(b1-3)Gal(b1-4)GlcNAc(b1-3)Gal(b1-4)GlcNAc(b1-3)Gal(b1-4)GlcNAc(b1-3)Gal(b1-4)GlcNAc(b1-2)Man(a1-6)]Man(b1-4)GlcNAc(b1-4)[Fuc(a1-6)]GlcNAc
# Outline: as §1
# [15] = target: GlcNAc(b1-3)Gal(b1-4)GlcNAc(b1-3)Gal(b1-4)GlcNAc(b1-3)Gal(b1-4)GlcNAc(b1-3)Gal(b1-4)GlcNAc(b1-2)[GlcNAc(b1-3)Gal(b1-4)GlcNAc(b1-3)Gal(b1-4)GlcNAc(b1-3)Gal(b1-4)GlcNAc(b1-3)Gal(b1-4)GlcNAc(b1-6)]Man(a1-6)[GlcNAc(b1-3)Gal(b1-4)GlcNAc(b1-3)Gal(b1-4)GlcNAc(b1-3)Gal(b1-4)GlcNAc(b1-3)Gal(b1-4)GlcNAc(b1-2)Man(a1-3)]Man(b1-4)GlcNAc(b1-4)[Fuc(a1-6)]GlcNAc
# Outline: as §1
# [16] = target: GlcNAc(b1-3)Gal(b1-4)GlcNAc(b1-3)Gal(b1-4)GlcNAc(b1-3)GalNAc
# Outline: as §1
# [17] = target: GlcNAc(b1-3)Gal(b1-4)GlcNAc(b1-3)GalNAc
# Outline: as §1
# [18] = target: GlcNAc(b1-3)Gal(b1-4)GlcNAc(b1-3)[GlcNAc(b1-3)Gal(b1-4)GlcNAc(b1-3)]GalNAc
# Outline: as §1
# [19] = target: GlcNAc(b1-3)Gal(b1-4)GlcNAc(b1-6)[Gal(b1-3)]GalNAc
# Outline: as §1
# [20] = target: GlcNAc(b1-3)Gal(b1-4)GlcNAc(b1-6)[GlcNAc(b1-3)Gal(b1-3)]GalNAc
# Outline: as §1
# [21] = target: GlcNAc(b1-3)Gal(b1-4)GlcNAc(b1-6)[GlcNAc(b1-3)]Gal(b1-4)GlcNAc
# Outline: as §1
# GlcNAc(b1-3)GalNAc = target: GlcNAc(b1-3)GalNAc
# Outline: as §1
# GlcNAc(b1-3)Man = target: GlcNAc(b1-3)Man
# Outline: as §1
# [22] = target: GlcNAc(b1-3)[GlcNAc(b1-4)][GlcNAc(b1-6)]GlcNAc
# Outline: as §1
# [23] = target: GlcNAc(b1-3)[GlcNAc(b1-6)]Gal(b1-4)GlcNAc
# Outline: as §1
# [24] = target: GlcNAc(b1-3)[GlcNAc(b1-6)]GalNAc
# Outline: as §1
# [25] = target: GlcNAc(b1-4)Gal(b1-4)GlcNAc
# Outline: as §1
# GlcNAc(b1-4)GlcNAc = target: GlcNAc(b1-4)GlcNAc
# Outline: as §1
# [26] = target: GlcNAc(b1-4)GlcNAc(b1-4)GlcNAc
# Outline: as §1
# [27] = target: GlcNAc(b1-4)GlcNAc(b1-4)GlcNAc(b1-4)GlcNAc(b1-4)GlcNAc
# Outline: as §1
# [28] = target: GlcNAc(b1-4)GlcNAc(b1-4)GlcNAc(b1-4)GlcNAc(b1-4)GlcNAc(b1-4)GlcNAc
# Outline: as §1
# [29] = target: GlcNAc(b1-4)[GlcNAc(b1-6)]GalNAc
# Outline: as §1
# [30] = target: GlcNAc(b1-6)Gal(b1-4)GlcNAc
# Outline: as §1
# GlcNAc(b1-6)GalNAc = target: GlcNAc(b1-6)GalNAc
# Outline: as §1
# [31] = target: GlcNAc6S(b1-3)Gal(b1-4)GlcNAc
# Outline: as §1
# Kdn(a2-3)Gal(b1-3)GalNAc = target: Kdn(a2-3)Gal(b1-3)GalNAc
# Outline: as §1
# Kdn(a2-3)Gal(b1-3)GlcNAc = target: Kdn(a2-3)Gal(b1-3)GlcNAc
# Outline: as §1
# Kdn(a2-3)Gal(b1-4)Glc = target: Kdn(a2-3)Gal(b1-4)Glc
# Outline: as §1
# Kdn(a2-3)Gal(b1-4)GlcNAc = target: Kdn(a2-3)Gal(b1-4)GlcNAc
# Outline: as §1
# [32] = target: Kdn(a2-3)Gal(b1-4)[Fuc(a1-3)]GlcNAc
# Outline: as §1
# Kdn(a2-6)Gal(b1-4)GlcNAc = target: Kdn(a2-6)Gal(b1-4)GlcNAc
# Outline: as §1
# [33] = target: Man(a1-2)Man(a1-2)Man(a1-3)Man
# Outline: as §1
# [34] = target: Man(a1-2)Man(a1-2)Man(a1-6)[Man(a1-3)]Man
# Outline: as §1
# Man(a1-2)Man(a1-3)Man = target: Man(a1-2)Man(a1-3)Man
# Outline: as §1
binder,measurement,setting,value
CTAEGIKKFEGDGYELFKDNFPAGEKFDNDDTNDQFYTVIF [MUB40 (Lactobacillus reuteri)],glycan array binding signal (z-score),[1],0.231
same,glycan array binding signal (z-score),GlcNAc(b1-3)Gal(b1-4)Glc,-0.35
same,glycan array binding signal (z-score),[2],0.128
same,glycan array binding signal (z-score),[3],0.142
same,glycan array binding signal (z-score),[4],-0.159
same,glycan array binding signal (z-score),[5],-0.034
same,glycan array binding signal (z-score),[6],0.512
same,glycan array binding signal (z-score),[7],1.03
same,glycan array binding signal (z-score),[8],2.39
same,glycan array binding signal (z-score),[9],0.204
same,glycan array binding signal (z-score),[10],0.376
same,glycan array binding signal (z-score),[11],4.26
same,glycan array binding signal (z-score),[12],0.238
same,glycan array binding signal (z-score),[13],-0.228
same,glycan array binding signal (z-score),[14],2.26
same,glycan array binding signal (z-score),[15],0.15
same,glycan array binding signal (z-score),[16],0.054
same,glycan array binding signal (z-score),[17],-0.176
same,glycan array binding signal (z-score),[18],-0.149
same,glycan array binding signal (z-score),[19],-1.06
same,glycan array binding signal (z-score),[20],1.71
same,glycan array binding signal (z-score),[21],0.183
same,glycan array binding signal (z-score),GlcNAc(b1-3)GalNAc,-0.205
same,glycan array binding signal (z-score),GlcNAc(b1-3)Man,-0.357
same,glycan array binding signal (z-score),[22],-0.035
same,glycan array binding signal (z-score),[23],-0.672
same,glycan array binding signal (z-score),[24],0.365
same,glycan array binding signal (z-score),[25],-0.459
same,glycan array binding signal (z-score),GlcNAc(b1-4)GlcNAc,-0.521
same,glycan array binding signal (z-score),[26],-0.402
same,glycan array binding signal (z-score),[27],0.013
same,glycan array binding signal (z-score),[28],-0.138
same,glycan array binding signal (z-score),[29],-0.633
same,glycan array binding signal (z-score),[30],0.015
same,glycan array binding signal (z-score),GlcNAc(b1-6)GalNAc,-0.355
same,glycan array binding signal (z-score),[31],0.019
same,glycan array binding signal (z-score),Kdn(a2-3)Gal(b1-3)GalNAc,-0.316
same,glycan array binding signal (z-score),Kdn(a2-3)Gal(b1-3)GlcNAc,-0.525
same,glycan array binding signal (z-score),Kdn(a2-3)Gal(b1-4)Glc,-0.547
same,glycan array binding signal (z-score),Kdn(a2-3)Gal(b1-4)GlcNAc,-0.376
same,glycan array binding signal (z-score),[32],-0.713
same,glycan array binding signal (z-score),Kdn(a2-6)Gal(b1-4)GlcNAc,0.773
same,glycan array binding signal (z-score),[33],-0.245
same,glycan array binding signal (z-score),[34],-1.03
same,glycan array binding signal (z-score),Man(a1-2)Man(a1-3)Man,2.3
